# Source: the supplement of paper PMC9938546
# Counter-ions that a name gives are not always drawn. This is one part of the list. Many values rest on one well or one pass, so single values are uncertain.
# Test system: HCT116-GFP
# Experiment: HCT116-GFP viability (GFP intensity) relative to untreated control, monoculture; higher = less cancer cell killing
# Details: culture: HCT116-GFP monoculture; 10 µM; 72 h
# 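Further: viability estimated indirectly by image-based GFP quantification with live-cell imaging of the constitutively GFP-expressing human colorectal cancer line, no immune cells added.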
row,Compound,HCT116-GFP viability
1,CC(=O)[C@@]1(O)CC[C@H]2[C@@H]3C[C@H](C)C4=CC(=O)C=C[C@]4(C)[C@@]3(F)[C@@H](O)C[C@@]21C [Fluorometholone],115%
2,CCc1nc(N)nc(N)c1-c1ccc(Cl)cc1 [Pyrimethamine],40.8%
3,CC(C)NCC(O)COc1ccc(CCOCC2CC2)cc1 (stereo unspecified) [Betaxolol hydrochloride],102%
4,C[C@H]1c2cccc(O)c2C(=O)C2=C(O)[C@]3(O)C(=O)C(C(N)=O)=C(O)[C@@H](N(C)C)[C@@H]3[C@@H](O)[C@@H]21 [Doxycycline hydrochloride],65.2%
5,CCCC1C(=O)N2C(N(C)C)=Nc3ccc(C)cc3N2C1=O (stereo unspecified) [Azapropazone],99.7%
6,Clc1ccc(C(Cn2ccnc2)OCc2ccsc2Cl)c(Cl)c1 (stereo unspecified) [Tioconazole],64.5%
7,c1cnc(N2CCN(Cc3ccc4c(c3)OCO4)CC2)nc1 [Piribedil hydrochloride],96.2%
8,"C[C@](N)(Cc1ccc(O)c(O)c1)C(=O)O [Methyldopa (L,-)]",109%
9,CCOC(=O)O[C@]1(C(=O)OCCl)CC[C@H]2[C@@H]3CCC4=CC(=O)C=C[C@]4(C)[C@H]3[C@@H](O)C[C@@]21C [Loteprednol etabonate],82%
10,Cc1ccc(NC(=O)c2ccc(CN3CCN(C)CC3)cc2)cc1Nc1nccc(-c2cccnc2)n1 [Imatinib],90.8%
11,CN[C@@H]1[C@H](O)[C@H](NC)[C@H]2O[C@@]3(O)C(=O)C[C@@H](C)O[C@H]3O[C@@H]2[C@H]1O [Spectinomycin dihydrochloride],79.6%
12,NS(=O)(=O)c1cc2c(cc1Cl)NC(C(Cl)Cl)NS2(=O)=O (stereo unspecified) [Trichlormethiazide],91.2%
13,C#Cc1cccc(Nc2ncnc3cc(OCCOC)c(OCCOC)cc23)c1 [Erlotinib],47.7%
14,N[C@@H](C(=O)N[C@@H]1C(=O)N2C(C(=O)O)=C(Cl)CC[C@H]12)c1ccccc1 [Loracarbef],91.4%
15,Cc1onc(-c2ccccc2Cl)c1C(=O)N[C@@H]1C(=O)N2[C@@H]1SC(C)(C)[C@@H]2C(=O)O [Cloxacillin sodium salt],98.3%
16,CC(C)Nc1cccnc1N1CCN(C(=O)c2cc3cc(NS(C)(=O)=O)ccc3[nH]2)CC1 [Delavirdine],91.9%
17,CN[C@@H]1[C@@H](O[C@H]2O[C@H](CO)[C@@H](N)[C@H](O)[C@H]2O)OC2C[C@@H](N)[C@@H](O[C@H]3[C@H](O)[C@@H](O)[C@H](N)C[C@@H]3N)OC2[C@@H]1O (stereo partly specified) [Apramycin],107%
18,Cc1c(-c2ccccc2)oc2c(C(=O)OCCN3CCCCC3)cccc2c1=O [Flavoxate hydrochloride],102%
19,CC(C)(CO)C(O)C(=O)NCCCO (stereo unspecified) [Panthenol (D)],100%
20,CN(C)C/C=C(/c1ccc(Br)cc1)c1cccnc1 [Zimelidine dihydrochloride monohydrate],110%
21,CCOc1ccc2ccccc2c1C(=O)N[C@@H]1C(=O)N2[C@@H]1SC(C)(C)[C@@H]2C(=O)O [Nafcillin sodium salt monohydrate],107%
22,CCN(CC)CCNC(=O)c1cc(Cl)c(N)cc1OC [Metoclopramide monohydrochloride],98.6%
23,Cn1cnc2c1c(=O)[nH]c(=O)n2C [Theobromine],91.9%
24,O=C(N[C@H](CO)[C@H](O)c1ccc([N+](=O)[O-])cc1)C(Cl)Cl [Chloramphenicol],88.2%

row,Compound,HCT116-GFP viability
1,CCC[C@@H]1C[C@@H](C(=O)N[C@@H]([C@H]2O[C@H](SC)[C@H](O)[C@@H](O)[C@H]2O)[C@H](C)Cl)N(C)C1 [Clindamycin hydrochloride],84.9%
2,Cc1ccc2c(c1)c1c3n2CCNC3CCC1 (stereo unspecified) [Pirlindole mesylate],101%
3,C=C1/C(=C\C=C2/CCC[C@]3(C)[C@@H]([C@H](C)CCCC(C)C)CC[C@@H]23)C[C@@H](O)C[C@@H]1O [Alfacalcidol],48.1%
4,CC(C)[N+](C)(CCOC(=O)C1c2ccccc2Oc2ccccc21)C(C)C [Propantheline bromide],103%
5,CN(C)CCC=C1c2ccccc2COc2ccccc21 [Doxepin hydrochloride],95.9%
6,Nc1ccccc1S(N)(=O)=O [2-Aminobenzenesulfonamide],104%
7,COc1ccccc1Oc1c(NS(=O)(=O)c2ccc(C(C)(C)C)cc2)nc(-c2ncccn2)nc1OCCO [Bosentan],86.4%
8,N=C(N)NC(=O)Cc1c(Cl)cccc1Cl [Guanfacine hydrochloride],79.5%
9,CC1CNc2c(cccc2S(=O)(=O)N[C@@H](CCCNC(=N)N)C(=O)N2CC[C@@H](C)C[C@@H]2C(=O)O)C1 (stereo partly specified) [Argatroban],94.4%
10,CN(C)CCN(Cc1ccccc1)c1ccccn1 [Tripelennamine hydrochloride],100%
11,CN1C(=O)CC(c2ccccc2)C1=O (stereo unspecified) [Phensuximide],86.4%
12,Nc1ccn([C@@H]2O[C@H](CO)[C@@H](O)C2(F)F)c(=O)n1 [Gemcitabine],14.4%
13,CC(=O)O[C@@]12CO[C@@H]1C[C@H](O)[C@@]1(C)C(=O)[C@H](O)C3=C(C)[C@@H](OC(=O)[C@H](O)[C@@H](NC(=O)OC(C)(C)C)c4ccccc4)C[C@@](O)([C@@H](OC(=O)c4ccccc4)[C@H]21)C3(C)C [Docetaxel],22.8%
14,Clc1ccc(CSC(Cn2ccnc2)c2ccc(Cl)cc2Cl)cc1 (stereo unspecified) [Sulconazole nitrate],52.4%
15,C[C@]12CC[C@@H]3c4ccc(O)cc4CC[C@H]3[C@@H]1CC[C@@H]2O [Estradiol-17 beta],97.6%
16,CCCN(CCC)S(=O)(=O)c1ccc(C(=O)O)cc1 [Probenecid],103%
17,CN(C)CCOC(c1ccccc1)c1ccccc1 [Diphenhydramine hydrochloride],93.1%
18,COc1ccc2[nH]c([S+]([O-])Cc3ncc(C)c(OC)c3C)nc2n1 (stereo unspecified) [Tenatoprazole],84.9%
19,CC(=O)[C@H]1CC[C@H]2[C@@H]3CCC4=CC(=O)CC[C@]4(C)[C@H]3CC[C@]12C [Progesterone],82%
20,CN(C)CC/C=C1/c2ccccc2Sc2ccc(Cl)cc21 [Chlorprothixene hydrochloride],63%
21,NC(Cc1cc(I)c(Oc2cc(I)c(O)c(I)c2)c(I)c1)C(=O)O (stereo unspecified) [Thyroxine (L)],59.5%
22,CC(=O)Oc1ccccc1C(=O)O [Acetylsalicylic acid],86.9%
23,N=C(N)NS(=O)(=O)c1ccc(N)cc1 [Sulfaguanidine],108%
24,CC1=C(/C=C/C(C)=C/C=C/C(C)=C/C(=O)O)C(C)(C)CCC1 [Retinoic acid],96.3%

row,Compound,HCT116-GFP viability
1,NC(=O)c1cc[n+](CC2=C(C(=O)[O-])N3C(=O)[C@@H](NC(=O)[C@@H](c4ccccc4)S(=O)(=O)O)[C@H]3SC2)cc1 [Cefsulodin sodium salt],101%
2,CCc1c(C)[nH]c2c1C(=O)C(CN1CCOCC1)CC2 (stereo unspecified) [Molindone hydrochloride],82.8%
3,CCC1(c2ccccc2)NC(=O)N(C)C1=O (stereo unspecified) [Mephenytoin],80.1%
4,CC1(C)[C@H](C(=O)O)N2C(=O)C[C@H]2S1(=O)=O [Sulbactam],80.1%
5,Cc1ncc(CO)c(CO)c1O [Pyridoxine hydrochloride],92.8%
6,C#C[C@]1(OC(C)=O)CC[C@H]2[C@@H]3CCC4=CC(=NO)CC[C@@H]4[C@H]3CC[C@@]21CC (mixture of isomers) [Norgestimate],74.4%
7,Clc1ccc(CO/N=C(\Cn2ccnc2)c2ccc(Cl)cc2Cl)c(Cl)c1 [Oxiconazole Nitrate],75%
8,CC(=O)O[C@]1(C(C)=O)CC[C@H]2[C@@H]3C=C(Cl)C4=CC(=O)[C@@H]5C[C@@H]5[C@]4(C)[C@H]3CC[C@@]21C [Cyproterone acetate],92.2%
9,N[C@@H]1CONC1=O [D-cycloserine],107%
10,O=C(O)COCCN1CCN(C(c2ccccc2)c2ccc(Cl)cc2)CC1 (stereo unspecified) [Cetirizine dihydrochloride],89.4%
11,COc1cc2nc(N(C)CCCNC(=O)C3CCCO3)nc(N)c2cc1OC (stereo unspecified) [Alfuzosin hydrochloride],109%
12,Clc1ccc(Cn2c(CN3CCCC3)nc3ccccc32)cc1 [Clemizole hydrochloride],89.1%
13,CC1(C)S[C@@H]2[C@H](NC(=O)[C@H](NC(=O)N3CCNC3=O)c3ccccc3)C(=O)N2[C@H]1C(=O)O [Azlocillin sodium salt],86.4%
14,CC(C)c1ccc2oc3nc(N)c(C(=O)O)cc3c(=O)c2c1 [Amlexanox],80.4%
15,COC(=O)Nc1nc2cc(C(=O)c3ccccc3)ccc2[nH]1 [Mebendazole],10.7%
16,Cc1cc2c(cc1S(N)(=O)=O)S(=O)(=O)CCC2 [Meticrane],96.7%
17,NCCNCCNCCNCCN [Tetraethylenepentamine pentahydrochloride],85.5%
18,Cc1onc(-c2c(Cl)cccc2Cl)c1C(=O)N[C@@H]1C(=O)N2[C@@H]1SC(C)(C)[C@@H]2C(=O)O [Dicloxacillin sodium salt hydrate],104%
19,CN1C(C)(C)CCCC1(C)C [Pempidine tartrate],101%
20,C[N+](C)(C)CCCCCC[N+](C)(C)C [Hexamethonium dibromide dihydrate],96.8%
21,CC[N+](C)(C)Cc1ccccc1Br [Bretylium tosylate],81.5%
22,CN(C)/N=N/c1[nH]cnc1C(N)=O [Dacarbazine],54.4%
23,COc1ccc(C(Cl)=C(c2ccc(OC)cc2)c2ccc(OC)cc2)cc1 [Chlorotrianisene],86.8%
